According to PubChem BioAssay AID743255 (National Center for Advancing Translational Sciences (NCATS), 2014):
Screen size: about 390,000 compounds; about 910 (0.23%) were called active. Not shown: some 5% with an inconclusive outcome. Calls come from the whole dose curve; as a rule, active = well fitted inhibition curve with a large enough effect; inconclusive = small, poorly fitted or top-dose-only effect; inactive = no such curve, though single readings can be large or run the other way. The list shows a part of the results, in another mix than the full data.

Each compound was assayed against Ubiquitin carboxyl-terminal hydrolase 1 (Homo sapiens) (UniProt O94782) (assay: Inhibitors of USP1/UAF1: Primary Screen). Details: recombinant USP1/UAF1, Ub-Rhodamine cleavage fluorescence; activity change, negative = inhibition: at 57.1 µM (top of the series).
Chain of UniProt O94782 (O94782 whole entry, looked up): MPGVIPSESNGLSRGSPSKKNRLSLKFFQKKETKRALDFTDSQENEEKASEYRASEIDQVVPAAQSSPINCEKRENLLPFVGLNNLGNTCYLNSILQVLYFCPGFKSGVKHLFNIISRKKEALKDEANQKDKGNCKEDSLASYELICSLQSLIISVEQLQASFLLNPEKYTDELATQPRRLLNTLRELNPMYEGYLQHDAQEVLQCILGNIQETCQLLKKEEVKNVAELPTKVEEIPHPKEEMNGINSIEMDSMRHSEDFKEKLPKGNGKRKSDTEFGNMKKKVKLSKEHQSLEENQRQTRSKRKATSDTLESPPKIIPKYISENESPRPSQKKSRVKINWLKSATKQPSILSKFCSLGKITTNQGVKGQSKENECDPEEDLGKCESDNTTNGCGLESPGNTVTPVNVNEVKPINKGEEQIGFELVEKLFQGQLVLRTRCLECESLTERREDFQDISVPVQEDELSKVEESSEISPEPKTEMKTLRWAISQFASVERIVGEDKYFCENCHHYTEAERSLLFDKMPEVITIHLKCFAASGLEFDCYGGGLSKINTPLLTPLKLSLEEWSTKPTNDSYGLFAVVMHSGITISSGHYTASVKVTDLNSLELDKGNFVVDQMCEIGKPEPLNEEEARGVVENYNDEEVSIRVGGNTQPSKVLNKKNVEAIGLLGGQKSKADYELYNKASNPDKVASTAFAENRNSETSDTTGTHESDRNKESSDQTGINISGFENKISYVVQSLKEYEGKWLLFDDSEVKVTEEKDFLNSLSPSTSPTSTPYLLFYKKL
Source text: Deubiquitinating enzymes (DUBs) are a class of enzymes that can cleave isopeptide bond formed between the C-terminal carboxylate of ubiquitin and a lysine side-chain amino group on the target protein. Among them, ubiquitin specific proteases (USPs) constitute the largest DUB family. Human USPs are emerging as promising targets for pharmacological intervention because of their connection to a number of human diseases, including prostate, colon and breast cancer (1, 2), pediatric acute lymphoblastic leukemia (3), and familial cylindromatosis (4). The advantage of inhibiting USPs lies in the potential specificity of therapeutic intervention that can lead to better efficacy and reduce nonspecific side effects. In a collaboration between the University of Delaware and the NIH Chemical Genomics Center, a high-throughput screen assay was developed to screen for USP1/UAF1 inhibitors. This miniaturized assay has a fluorescent read-out and is used to screen the NIH Molecular Libraries Small Molecule Repository (MLSMR) in order to identify a small molecule that inhibits USP1. NIH Chemical Genomics Center [NCGC] NIH Molecular Libraries Probe Centers Network [MLPCN] MLPCN Grant: DA030552 Assay Submitter (PI): Zhihao Zhuang, University of Delaware 1. Priolo, C., et al. (2006) The isopeptidase USP2a protects human prostate cancer from apoptosis. Cancer Res 66, 8625-8632 2. Popov, N., et al. (2007) The ubiquitin-specific protease USP28 is required for MYC stability. Nat Cell Biol 9, 765-774 3. De Pitta, C., et al. (2005) A leukemia-enriched cDNA microarray platform identifies new transcripts with relevance to the biology of pediatric acute lymphoblastic leukemia. Haematologica 90, 890-898 4. Kovalenko, A., et al. (2003) The tumour suppressor CYLD negatively regulates NF-kappaB signalling by deubiquitination. Nature 424, 801-805
3 microliters of reagents (buffer in columns 3 and 4 as negative control and 1nM USP1/UAF1 complex in columns 1, 2, and 5-48) are dispensed into Greiner black solid bottom 1536-well assay plates. Compounds are then transferred via Kalypsys pin tool equipped with 1536-pin array (10nl slotted pins, V&P Scientific, San Diego, CA). Following an incubation step of 15 min at room temperature, 1ul of Ub-Rho substrate (150nM final concentration) is added to initiate the reaction. The plates are immediately centrifuged at 1000 rpm for 15 seconds, and subsequently transferred to a ViewLux high-throughput CCD imager (PerkinElmer) wherein kinetic measurements of fluorescence are acquired using 480 nm excitation/540 nm emission filter set (6 reads every 60 seconds, see Table 1). All reagents are diluted in an assay buffer consisting of 50mM HEPES (pH 7.8), 0.5mM EDTA, 0.1 mg/ml BSA, 1mM TCEP, and 0.01% Tween-20.
% is set by controls: 0 for no effect and ±100 for the full control effect; potency is the fitted concentration of half-maximal effect.
Note: nearly all actives have a fitted effect of over 60% in size.

Compound | activity change, negative = inhibition | Potency
COc1ccc(S(=O)(=O)N(C)C[C@H]2OCc3cnnn3CCCC(=O)N([C@@H](C)CO)C[C@H]2C)cc1 | inactive: -13.9% | 
OCC[C@@H]1C[C@H](O)[C@@H](O)[C@@]2(OCc3ccccc32)O1 | inactive: -25.4% | 
O=C1NC[C@H](c2ccccc2)OC(=O)[C@H](Cc2ccc(F)cc2)C/C=C\C[C@@H]1CC(=O)N(CCO)Cc1ccccc1 | inactive: -21% | 
COC(=O)c1ccc2nc(C3CCCCC3)c3c(c2c1)CCC3 | inactive: -6.54% | 
COC(=O)C[C@H]1C[C@@H]2c3cc(NS(=O)(=O)c4cccc(OC)c4)ccc3O[C@@H]2[C@@H](CO)O1 | inactive: -14.6% | 
COc1ccc(-c2nc3ccccc3s2)cc1NC(C)=O | inactive: -23.4% | 
CCC1CN(C(=O)NCc2ccc(F)cc2)c2ccccc2O1 (stereo unspecified) | inactive: -19.9% | 
COC(C[C@H]1O[C@H]1[C@@H](O)[C@@H](C)OCc1ccccc1)OC | inactive: -17.4% | 
COC(=O)CN1C(=O)S/C(=C/c2ccc(N3CCCCC3)o2)C1=O |  | active: 28.2 µM
C[C@H]1CN([C@@H](C)CO)C(=O)CCCn2nncc2CO[C@H]1CN(C)C(=O)NC1CCCCC1 | inactive: -23.4% | 
O=C1CC(N2CCC(Cc3ccccc3)CC2)C(=O)N1CCc1ccccc1 (stereo unspecified) | inactive: 23.5% | 
COc1ccc(C)cc1NC(=O)CN1C(=O)CSc2ccc(S(=O)(=O)N3CCCC3)cc21 | inactive: -24.3% | 
O=C1c2c(O)ccc(O)c2C(=O)c2c(NCCNCCO)ccc(NCCNCCO)c21 | inactive: -3.04% | 
OCC[C@H]1C[C@H](O)[C@@H](O)[C@]2(CCCCO2)O1 | inactive: -9.97% | 
CC(C)(C)OC(=O)C[C@@H]1C/C=C\C[C@@H](CC(=O)N[C@@H](CO)Cc2ccccc2)C(=O)N2CCC[C@@H]2COC1=O | inactive: -18.1% | 
Cc1cc(C)cc(NC(=O)CCCN2C(=O)COc3ccc(C)cc32)c1 | inactive: 55.1% | 
Cc1ccc(O)c(C(=O)c2cc(C#N)c(=O)n(-c3nccs3)c2)c1 |  | active: 17.8 µM
COC(=O)[C@@H]1C[C@@H]2CC[C@@H](O)C[C@@H]2N1Cc1ccccc1OS(=O)(=O)c1ccc(C)cc1 | inactive: -25.2% | 
COc1ccc(NC(=O)C(C)NS(=O)(=O)c2ccc(NC(C)=O)cc2)cc1Cl (stereo unspecified) | inactive: 7.97% | 

Compound | activity change, negative = inhibition | Potency
CCOC(=O)[C@@H]1[C@H]2COc3ccc(Br)cc3[C@H]2N2C(=O)N(c3cccc(F)c3)C(=O)[C@]12C | inactive: -30.5% | 
O=C1NC[C@H](c2ccccc2)OC(=O)[C@H](Cc2ccc(F)cc2)CC/C=C/C[C@H]1CC(=O)N(CCO)Cc1ccccc1 | inactive: -3.05% | 
C[C@H](CO)N1C[C@H](C)[C@@H](CN(C)Cc2ccc(C(=O)O)cc2)Oc2c(NC(=O)c3ccncc3)cccc2C1=O | inactive: -7.83% | 
C[C@@H]1CN([C@H](C)CO)C(=O)CCCn2nncc2CO[C@H]1CN(C)C(=O)Nc1cccc2ccccc12 | inactive: -25.8% | 
O=C(C[C@@H]1C/C=C\C[C@H](NC(=O)OCC2c3ccccc3-c3ccccc32)C(=O)OC[C@@H]2CCCN2C1=O)NCCO | inactive: -0.0737% | 
N=c1nc(N2CCCCC2)cc(N)n1O | inactive: -4.8% | 
CCOC(=O)C1CCN(S(=O)(=O)c2cc(C(=O)OC)n(C)c2)CC1 | inactive: 46.9% | 
CC1CCc2c(sc3nc(-c4cc5ccccc5oc4=O)nc(Cl)c23)C1 (stereo unspecified) | inactive: 43.9% | 
COC(=O)N(C)C[C@@H]1OCc2cnnn2CCCC(=O)N([C@@H](C)CO)C[C@H]1C | inactive: -10.6% | 
COc1ccc(-c2nnc(SCC(=O)N3CCCCC3)o2)cc1 | inactive: -25.6% | 
Cc1ccc(Nc2ccc([N+](=O)[O-])ccc2=O)cc1 | inactive: 40.6% | 
C[C@@H]1CN([C@@H](C)CO)C(=O)CCCn2nncc2CO[C@H]1CN(C)C(=O)c1ccc(N2CCN(C)CC2)cc1 | inactive: -20.3% | 
CCOC(=O)[C@@H]1[C@H]2COc3ccc(Br)cc3[C@@H]2N2C(=O)N(c3ccc(C)cc3)C(=O)[C@@]12C | inactive: -11.6% | 
COC(=O)[C@@]12CCCN1[C@H](c1ccc(-c3ccccc3)cc1)[C@H]1C(=O)N(C)C(=O)[C@H]12 | inactive: -11.4% | 
Nc1ccc(N(CCO)CCO)cc1 |  | active: 8.91 µM
COc1ccc(C)cc1NC(=O)CN1CCCN(S(=O)(=O)c2ccc(Br)cc2)CC1 | inactive: -10.7% | 
CCCCCCN1C[C@H](O)[C@@H](n2cc(-c3ccc(F)cc3)nn2)C[C@@H]1c1ccc(C)cc1 | inactive: -19.8% | 
CCc1cccc(CC)c1N(COC)C(=O)Cn1c(C)nc2ccccc21 | inactive: 37.8% | 
O=C(c1cccs1)N1C[C@@H](O)[C@H](n2cc(-c3ccc(F)cc3)nn2)C[C@@H]1c1ccccc1 | inactive: -6.27% | 

Compound | activity change, negative = inhibition | Potency
NCCCS(=O)(=O)O | inactive: -13.8% | 
O=C(N1CCCC1)C12CC3CC(CC(C3)C1)C2 | inactive: 28.5% | 
COc1ccc(Oc2nc3c(C)cccn3c(=O)c2/C=C(\C#N)c2nc3ccccc3[nH]2)cc1 | inactive: 60.4% | 
CCCNC(=O)Cn1c(=O)/c(=C/c2ccc(-c3cccc([N+](=O)[O-])c3)o2)s/c1=C\C(=O)C(C)(C)C | inactive: 19.5% | 
CCOc1ccc(OCC)c(NC(=O)C2CCN(c3cnccn3)CC2)c1 | inactive: -25.6% | 
COc1cc2c(=O)n(CCC(=O)NCC3CCCO3)c(=O)n(CC(=O)Nc3ccc(C)cc3)c2cc1OC (stereo unspecified) | inactive: -1.42% | 
COC(=O)[C@H]1[C@H]2C[C@H]3c4[nH]c5ccccc5c4CCN3C[C@H]2CC[C@@H]1O | inactive: -30.4% | 
C[C@@H]1CN([C@H](C)CO)C(=O)CCCn2cc(nn2)CO[C@H]1CN(C)S(=O)(=O)c1ccc(-n2cccn2)cc1 | inactive: -3.9% | 
CC(=O)N1CCn2c3c(c(=O)c4cc(C)ccc42)CCC31 (stereo unspecified) |  | active: 31.6 µM
N#CC1=C2SCN(Cc3ccccc3)CN2C(=O)CC1c1cccs1 (stereo unspecified) |  | active: 15.8 µM
CCOc1ccccc1/C=C/c1onc(C)c1S(=O)(=O)N1CCC(C(=O)N(CC)CC)CC1 | inactive: -25.2% | 
CC[C@@H]1C/C=C\Cc2ccccc2[C@H](C(=O)C[C@H](O)CC(C)=O)OC1=O | inactive: -20.6% | 
O=C(CN1C(=O)COc2ccc(S(=O)(=O)N3CCCCCC3)cc21)NCc1ccc(F)cc1 | inactive: -18.3% | 
C=C1[C@H](C)CN(S(=O)(=O)C(C)(C)C)[C@H]1CCO | inactive: -3.85% | 
Cn1c(=O)oc2cc(S(=O)(=O)Nc3ccc(C(=O)O)cc3)ccc21 | inactive: -12.5% | 
C[C@@H](NC(=O)c1nc[nH]c1C(=O)NCCCCCNC(=O)OC(C)(C)C)c1ccccc1 | inactive: -25.7% | 
Cn1nc(-c2ccc(C(=O)Nc3ccc(F)cc3)cc2)c2ccccc2c1=O | inactive: -25.7% | 
Oc1ccc(C[C@H]2CNC(=S)N2CCc2cc(C(F)(F)F)cc(C(F)(F)F)c2)cc1 | inactive: -12.1% | 
